In the RNAGym collection of RNA variant scans (doi:10.7554/elife.90254):
Read counts are not given, so values of variants with three or more changes are uncertain.

B1: OR4K15 (parent)
chain: GUUAACGGUCAUAGGCCAUGGAAACUAGGAGCACCAUUUCGCUGCCAGUGAAGAAAUGAACAAAGAAAAUCUGGGCCAGGCAGGCAUCAAAAGAAAUAGUCUUGCGCUCAACCAGAAAGUCUGUAAUCAUUUUAAGGGUA

Variants of: B1
Assay: self-cleavage, relative activity (ratio to wild type); higher = more cleavage; in vitro, sequencing; the parent is a self-cleaving ribozyme

Variant	self-cleavage
A36U A51G A52G A62U A66G U131C	0.14
A11G A30G A60G A68G U122A	0.51
A52G U57G A125G	0.13
A22G A111U U122C	0.07
A24G C46A A66G A82G A86U A135C	1.08
A5G A55G U72C U124C	0.21
A60C U72C A116G	0.17
A64G G104A A111G A126G	0
A33G U72C A96G U100C	0.26
A23G U38A A68G U72A A126G	0.22
A18G A89G G136A	1.56
A59G A63U U72C A86G	0.19
A18G U103G A114U	0.01
G1A U9C C35U	0.25
A5G A67G A126G U131C	0.51
A78U A86U A110G	0.18
U3C A68G U132C	1.07
A66G A96G A118G U132C	1.56
A52G A94G A135G	1.84
G41A A63G A68G A140U	1.38
U2C A5U A36G U57C	1.81

Variant	self-cleavage
A52G A90G U139A	0.88
U57C A89G G93U A110U U132C A140U	0.35
A51G A82G A111G	0.05
A23G A47U U130C	0.38
A56G A62C A94G G123A	1.3
A55G A89G U103C U139C	0.57
U57C U102C A129G	2.21
A11U A54G A59G A67G U100C	1.16
A56G A64G A86G A91G	0.08
A30G A54U G74A A86G U87C	0.17
A5G A47C A95G A110G	0.34
A23U U37C A69G A118G	1.39
A5G A13U U37C A63G A68G U131A	0.23
A68U A89U A98G	0.38
A4G A24G A82G	0.96
G1A C16U A91G	1.33
A30G U87C A125U	1.34
A23G A92G U132C	1.11
U3C U70C A95G	2.69
A23G A67G U127C	1.78
U43C G53A A67G U70A A90G C101U	0.03

Variant	self-cleavage
U26C A36U A51G A60G	1.47
U57C U102C A129G U130C A135G	1.56
A92G U132G A140G	1.2
U38C A51G U70G	0.84
A18U U38C A126C A140U	0.24
A22G A64G A82U A118G	0.07
A68C A89G U103C A110C	0.74
U3C U39G A92G	1.8
A30G A86U A98G U108C A140C	0.01
U9A A18G U43C A47G	0.67
A66U A86U U97A A110G	0.17
A60G A82U U102A A116G	0.19
U43A A67G G104A	0
A66G A67G A89G U108A	0.01
A47U U57C U87C A129G U131C	0.25
A63U U72C U97C	0.15
A33G A66U U130C	0.6
A27C U43A A78G	0.6
A18U G41A U43C A114G U122C	0.04
A56G A118U G138A	0.52
A11U A52G A92U	0.95

Variant	self-cleavage
A67G U87A A129G	0.97
U9A U38C A89G A92C A96U	1.28
U2C U38C A60G U72C G75C	0.24
A22G A54G A64U U97C A98G	0.75
C40U G79A G83A	0.09
A5G U9A A64G	0.56
U57C A67G U108A U122C	0
U2C U3C A60G G83A	1.03
A67G A90G A92G A98G U120A A126G A140G	0.24
A33G A114G A125G	0.05
A51G A95U A111G U132C	0
A33U A56G A90G A92G	1.06
U38C A66U A92G	2
A36G A89G A126G	0.51
A11G U39A A92G	0.21
A13G A60C A69U C81U	0.41
A13G U39A U72C A96G	0.57
A56G A67G U103C	0.62
A22G A24G A33U G106A C113A	0.06
A33G U57C A96G	0.36
